Here are results for 63 compounds from publication PMC6919601, “Identification of Plasmodium dipeptidyl aminopeptidase allosteric inhibitors by high throughput screening” (PLoS ONE, 2019).

The campaign covered roughly 110,000 compounds. About 230 (0.21%) showed an effect of 50% or more. The list shows a part of the results.
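Also: 30 min substrate incubation versus DMSO and 10 µM JCP410 controls.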

This assay deals with DPAP1 (Plasmodium falciparum, UniProt Q8IIJ9). Put plainly: primary screen, percent inhibition; read by cleavage of a fluorogenic dipeptide substrate; higher = more effect of the substance. Also on record: species or system P. falciparum D10 trophozoite lysates; single well.
Sequence of DPAP1 (Q8IIJ9 whole entry, looked up): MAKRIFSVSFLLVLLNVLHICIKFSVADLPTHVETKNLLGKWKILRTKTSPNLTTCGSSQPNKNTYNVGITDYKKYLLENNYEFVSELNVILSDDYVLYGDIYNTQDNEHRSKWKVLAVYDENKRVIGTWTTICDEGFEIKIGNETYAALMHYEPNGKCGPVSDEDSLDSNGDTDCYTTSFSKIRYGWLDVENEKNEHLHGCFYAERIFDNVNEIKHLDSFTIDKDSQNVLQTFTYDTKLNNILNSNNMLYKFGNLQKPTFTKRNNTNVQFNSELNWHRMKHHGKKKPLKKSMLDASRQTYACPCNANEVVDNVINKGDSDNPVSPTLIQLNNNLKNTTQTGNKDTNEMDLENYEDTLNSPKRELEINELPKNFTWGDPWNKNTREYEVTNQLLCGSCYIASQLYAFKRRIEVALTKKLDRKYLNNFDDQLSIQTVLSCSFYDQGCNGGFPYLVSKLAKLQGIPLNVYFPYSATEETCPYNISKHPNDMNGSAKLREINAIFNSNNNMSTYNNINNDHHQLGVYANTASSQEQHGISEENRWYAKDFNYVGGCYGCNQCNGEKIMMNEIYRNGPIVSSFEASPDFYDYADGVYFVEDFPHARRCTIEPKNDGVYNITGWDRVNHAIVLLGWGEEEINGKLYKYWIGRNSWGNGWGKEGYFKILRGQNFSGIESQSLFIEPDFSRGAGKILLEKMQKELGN
Regarding `Cc1nc(N2CCOCC2)c2ccccc2n1`, the “% Inhibition @ 10 uM” value was determined as 2.25%. Consider `O=C(CCC1CCCCC1)N1CCN(Cc2ccccc2)CC1`, for which the “% Inhibition @ 10 uM” value was -2.2%. Regarding `COc1cc(OC)cc(-c2cc3nc(C)c(CCC(=O)Nc4nc(C)cs4)c(C)n3n2)c1`, the “% Inhibition @ 10 uM” value is -4.1%.

As to `CC(=O)c1cc(C#N)c(SCc2c(F)cccc2Cl)nc1C`, the “% Inhibition @ 10 uM” value is given as -7.55%. For `Cn1c2c(c(=O)n(C)c1=O)C(c1ccccc1)C(C#N)=C(N)O2` (stereo not drawn), the “% Inhibition @ 10 uM” value is on record as -0.996%.

`COc1ccc(C(=O)Nc2ccccc2NC(=O)c2ccc(OC)cc2)cc1`: the “% Inhibition @ 10 uM” value is -2.98%.

With `C1=C(CCNCc2ccccc2)CCCC1`, the “% Inhibition @ 10 uM” value was 3.05%. `O=C(COc1ccc(Cl)cc1Cl)Nc1ccc(S(=O)(=O)N2CCCC2)cc1`: the “% Inhibition @ 10 uM” value is 3.96%.

In the case of `CCCCn1c(C(CCSC)NC(=O)c2ccccc2)nc2ccccc21` (stereo not drawn), the “% Inhibition @ 10 uM” value is on record as -1.82%. As for `CCc1ccc(CNc2nc3nc(C)c(Cl)c(C)n3n2)cc1`, the “% Inhibition @ 10 uM” value worked out at 2.62%. With `COc1ccc(-c2nc3cc(C(=N)NC(C)C)ccc3n2C)cc1OC`, the “% Inhibition @ 10 uM” value turned out to be 2.27%. `CC(C)NC(=O)CCn1cnc2onc(-c3ccc(F)cc3)c2c1=O`: the “% Inhibition @ 10 uM” value was -1.97%. On to `CCOC(=O)N1CCC(NCc2cccc(C(F)(F)F)c2)CC1`, for which the “% Inhibition @ 10 uM” value is on record as -0.0908%.

Take `Oc1c(C(c2ccccn2)N2CCN(c3ccccn3)CC2)cc(Cl)c2cccnc12` (stereo not drawn): the “% Inhibition @ 10 uM” value is on record as -1.04%. Consider `Cc1c(Cl)cccc1N(CC(=O)N1CCN(c2cccc(Cl)c2)CC1)S(C)(=O)=O`, for which the “% Inhibition @ 10 uM” value came out at 4.59%. Consider `CCOc1ccc(NC(=O)CN2C(=O)S/C(=C/c3c(C)[nH]c4ccccc34)C2=O)cc1`, for which the “% Inhibition @ 10 uM” value is given as -2.22%.

Consider `N#CC1=C(N)Oc2c(c(O)nc3ccccc23)C1c1ccc(F)c(F)c1` (stereo not drawn), for which the “% Inhibition @ 10 uM” value was -2.21%. As for `CCc1cc2c(=O)c(-c3nc4ccccc4n3C)c(C)oc2cc1O`, the “% Inhibition @ 10 uM” value is on record as -1.07%.

Consider `Cc1ccc(C)n1-c1nnc(N2CCCC(C(=O)NCCCN3CCOCC3)C2)s1` (stereo not drawn), for which the “% Inhibition @ 10 uM” value was found to be 2.65%. `COC(=O)c1ccc(S(=O)(=O)N(Cc2ccco2)Cc2cc3ccc(C)cc3nc2O)cc1`: the “% Inhibition @ 10 uM” value was 8.37%. With `COCCN1C=C(C(=O)OC)C(c2cccs2)C(C(=O)OC)=C1`, the “% Inhibition @ 10 uM” value is -1.33%. In the case of `COc1cc(-c2cc(C(=O)O)c3cc4c(cc3n2)OCCO4)ccc1O`, the “% Inhibition @ 10 uM” value came out at 5.19%. To `Cc1c(C(=O)NCCCN2CCCC(C)C2)sc2nc3n(c(=O)c12)CCCCC3` (stereo not drawn) belongs -7.32%. For `CCOc1cc(Cl)c(C(C)NC(=O)c2ccc(OC)cc2)cc1OCC` (stereo not drawn), the “% Inhibition @ 10 uM” value is on record as -3.09%. With `COc1ccc(S(=O)(=O)NCCC2CCCN2C)cc1` (stereo not drawn), the “% Inhibition @ 10 uM” value was 0.661%. To `COC(=O)c1ccc(COc2ccc3c(=O)c(-c4ccc(Cl)cc4)coc3c2)cc1` belongs -2.98%; to `COc1ccc(CNC(=O)CN(c2ccc(F)cc2)S(=O)(=O)c2ccccc2)cc1`, -15.9%. Turning to `Cc1cc(C)nc(SCCN2CCOCC2)n1`, the “% Inhibition @ 10 uM” value was -0.636%. Turning to `Cc1ccc(CS(=O)Cc2ccc(C(=O)NCC3CCCO3)o2)cc1` (stereo not drawn), the “% Inhibition @ 10 uM” value stood at 1.63%. For the compound `OC(Cc1cccnc1)c1ccccc1` (stereo not drawn), the “% Inhibition @ 10 uM” value is on record as -6.06%.

Consider `COc1ccc(S(=O)(=O)Cc2ccc(C(=O)NCCCc3ccccc3)o2)cc1`, for which the “% Inhibition @ 10 uM” value is on record as 12%. For `O=C(CN1C(=O)c2cccc3cccc(c23)C1=O)NCCN1CCOCC1`, the “% Inhibition @ 10 uM” value came to 3.47%.

With `CC(=O)NS(=O)(=O)c1ccc(NC(=O)c2ccc(-c3ccccc3)cc2)cc1`, the “% Inhibition @ 10 uM” value was 0.793%. To `CCOC(=O)c1c(C)c(C(=O)NCCOC)c(C)n1CC` belongs 3.32%. As for `COc1cc([C@H]2NCC[C@@]3(O)CCCC[C@H]23)cc(OC)c1O`, the “% Inhibition @ 10 uM” value is on record as -1.8%. The same measure for `C=CCSc1ncc(Cl)c(C(=O)Nc2nc3ccc(C)cc3s2)n1`: -0.946%; for `CCc1ccc(C2C(C#N)=C(N)Oc3c2c(C)nn3-c2ccccc2)cc1` (stereo not drawn): -2.07%. For the compound `Cc1ccc2[nH]c3c(c2c1)CCCC3NCc1ccccc1` (stereo not drawn), the “% Inhibition @ 10 uM” value worked out at 2.86%.

`COc1cc(C(=O)N2CCN(Cc3cccc(C)c3)CC2)cc(OC)c1OC`: the “% Inhibition @ 10 uM” value is reported as -5.85%. On to `O=C(NCC1CCCO1)c1sc2ccccc2c1Cl` (stereo not drawn), for which the “% Inhibition @ 10 uM” value was found to be 4.81%. On to `CC(=O)c1ccc(NS(=O)(=O)c2ccc(C)c(S(=O)(=O)Nc3ccc(C(C)=O)cc3)c2)cc1`, for which the “% Inhibition @ 10 uM” value amounted to 0.361%.

Take `CCO/C(O)=C1\C(C)=NC2=C(C(=O)CC(C)(C)C2)C1c1ccccc1Br` (stereo not drawn): the “% Inhibition @ 10 uM” value amounted to 1.84%.

In the case of `Cc1nc2ccccc2c2oc(C(=O)NC3CCCCC3C)cc12` (stereo not drawn), the “% Inhibition @ 10 uM” value was determined as 10.4%. Consider `OCCN1CCN(c2ncnc3c2cnn3-c2ccc(F)cc2)CC1`, for which the “% Inhibition @ 10 uM” value is -3.02%. With `O=C(CN(CCc1ccccc1)S(=O)(=O)c1ccccc1)Nc1cccc(Br)c1`, the “% Inhibition @ 10 uM” value stood at 0.431%. On to `CCOc1ccc(N2C(=O)CC(Cc3cccc(C)c3)C2=O)cc1` (stereo not drawn), for which the “% Inhibition @ 10 uM” value is -9.76%. With `CCCCN(C)CCCNC(=O)C1CCN(c2nc3c(C)cc(C)cc3s2)CC1`, the “% Inhibition @ 10 uM” value is 1.8%. Take `Cc1ccc(C(=O)c2coc3ccc(Br)cc3c2=O)cc1`: the “% Inhibition @ 10 uM” value amounted to 4.33%.

Regarding `CCN(CC)CC(=O)NCC1(c2ccccc2)CCOCC1`, the “% Inhibition @ 10 uM” value came to 1.84%. Regarding `Cc1ccc(N(CC(=O)Nc2cccc3cccnc23)S(=O)(=O)c2ccc(C)cc2)cc1`, the “% Inhibition @ 10 uM” value is -3.69%. For `C=CCOC(=O)c1cc(-c2ccc(/C=C3/C(=O)N(CCCO)C(=O)C(C#N)=C3C)o2)ccc1Cl`, the “% Inhibition @ 10 uM” value is given as 0.487%.

Consider `COc1ccc(OC)c(C(=O)c2coc3ccc(OCC(=O)O)cc23)c1`, for which the “% Inhibition @ 10 uM” value is recorded as -0.807%. To `COCc1cc(C)nc(SCC(=O)Nc2cccc3ccccc23)c1C#N` belongs 3.46%; to `COc1ccc(Cl)cc1-n1nnc(-c2nc(-c3cccs3)no2)c1N`, 0.331%. To `CC(C)Oc1ccc(C(=O)Nc2ccc3ccccc3c2)cc1` belongs 3.49%. On to `Cc1ccccc1OCC(=O)Nc1ccccc1Cl`, for which the “% Inhibition @ 10 uM” value is -0.872%.

Turning to `CC1(C)CC(=O)c2cc(OCC(=O)NCCN3CCOCC3)ccc2O1`, the “% Inhibition @ 10 uM” value is -2.65%.

For `CC(C)CCNC(=O)c1cc2c(-c3ccc(Cl)cc3)nn(C)c2s1`, the “% Inhibition @ 10 uM” value is reported as -3.09%. For the compound `COc1ccc(NC(=O)C2CC(=O)N(c3ccc(C)cc3)C2)cc1Cl` (stereo not drawn), the “% Inhibition @ 10 uM” value was -7.63%. In the case of `CCc1ccc(CNC(=O)c2cn(CC(C)C)c(=O)c3c2c2ccccc2n3C)cc1`, the “% Inhibition @ 10 uM” value was -0.0541%. On to `CCCCC(=O)Nc1cccc2cccnc12`, for which the “% Inhibition @ 10 uM” value came out at 21.2%. In the case of `Cc1ccc(NCC(=O)n2c(=O)sc3ccccc32)cc1`, the “% Inhibition @ 10 uM” value was 3.83%. As to `Cc1ccccc1Cn1ccn(CCc2ccccc2)c(=O)c1=O`, the “% Inhibition @ 10 uM” value is -0.326%.
